Reference: PubChem BioAssay AID624418 (National Center for Advancing Translational Sciences (NCATS), 2012)
Out of some 410,000 compounds screened, about 530 (0.13%) were called active. The inconclusive results got no clear call from the source; some entries with a clear call stand among them for comparison. Calls follow the shape of the dose curve; as a rule, active = well fitted inhibition curve with a large enough effect; inconclusive = small, poorly fitted or top-dose-only effect, or another doubt; inactive = no such curve, though single readings can be large or run the other way. Potencies of inconclusive entries are doubtful fits and often do not repeat.

Assay: qHTS of GLP-1 Receptor Inverse Agonists: Cytotox Screen
Conditions: HEK293 cAMP-luciferase reporter cells, luminescence, 24 h; series mostly up to 38.3 µM
Procedure, shortened: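 MLSMR compounds, 24 hr on cells at 37 deg C/5% CO2; luminescence after luciferase reagent (12 min RT). Inhibition counted as the undesired cytotoxic outcome.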
Potency is read from the fitted curve at half-maximal effect.

Row | Structure (SMILES) | Potency
1 | CN(C(=S)Nc1ccc(F)cc1)C(c1ccccc1)c1ccccc1 | inconclusive: 31.6 µM [inhibitor, partial curve, poor fit]
2 | FC(F)Oc1ccc(NC(=S)NC2CCCCCCC2)cc1 | inactive
3 | Cc1ccc(C)c(S(=O)(=O)c2nnn3c2nc(NCc2ccc4c(c2)OCO4)c2sccc23)c1 | inactive
4 | CCN(CC)S(=O)(=O)c1ccc2c(c1)NC(=O)C1CCCN21 (stereo not drawn) | inactive
5 | N=c1n(CCc2ccccc2)c2ccccc2n1Cc1ccccc1F | inconclusive: 10 µM [inhibitor, partial curve, poor fit]
6 | CCCCN1C(=S)NC[C@@H]1Cc1ccccc1 | inconclusive: 3.55 µM [inhibitor, full curve]
7 | C[C@H](CO)N1C[C@H](C)[C@H](CN(C)S(=O)(=O)c2cccc(F)c2)OCc2ccccc2-c2c(n(C)c3ccccc23)C1=O | inactive
8 | COc1ccccc1CN(Cc1nc2ccccc2c(=O)[nH]1)C(=O)Nc1ccccc1C | inconclusive: 28.2 µM [inhibitor, single point]
9 | CC1(c2ccccc2)CC(C)(C)N2C(=O)C3(C(C#N)=C(N)Oc4cc(O)ccc43)c3cccc1c32 (stereo not drawn) | inconclusive: 28.2 µM [inhibitor, single point]
10 | O=C1C=CC(=O)N1c1ccc(N2CCCCC2)cc1 | inconclusive: 12.6 µM [inhibitor, single point]
11 | CC(C)Cc1ccc(CN2CCCC(NC(=O)c3ccoc3)C2)cc1 (stereo not drawn) | inconclusive: 11.2 µM [inhibitor, partial curve, poor fit]
12 | Cc1ccc(Nc2nc(N/N=C/c3c[nH]c4ccccc34)nc(N3CCOCC3)n2)cc1 | inconclusive: 28.2 µM [inhibitor, single point]
13 | Cc1cc(NC(=O)C2CCCCC2)n(-c2nc3ccccc3[nH]2)n1 | inconclusive: 12.6 µM [inhibitor, single point]
14 | Cc1cc(N/N=C\c2ccc(Br)cc2)nc(-n2nc(C)cc2C)n1 | inconclusive: 0.562 µM [inhibitor, full curve, poor fit]
15 | Cc1cccc(C)c1NC(=S)NCCSc1ccc(Cl)cc1 | inconclusive: 28.2 µM [inhibitor, single point]
16 | Cc1ccc(C)c(/C=C/C(=O)c2ccccc(=O)c2O)c1 | inconclusive: 12.6 µM [inhibitor, single point]
17 | COC(=O)c1cc(C(=O)N2CCN(c3cccc(C)c3C)CC2)cc([N+](=O)[O-])c1 | inconclusive: 3.55 µM [inhibitor, full curve]
18 | COc1cc(CC(=O)NCCc2ccc(S(N)(=O)=O)cc2)cc(OC)c1OC | inconclusive: 12.6 µM [inhibitor, single point]
19 | CC(=O)c1ccc(N(CC(=O)NCCc2ccccc2)C(=O)c2csnn2)cc1 | inactive
20 | CCCC[C@@H](CN[C@H](C)CNC)NCC1CCC(C(C)(C)C)CC1 (stereo partly drawn) | inconclusive: 28.2 µM [inhibitor, single point]
21 | S=c1[nH]nc(C2CCCCC2)n1/N=C/c1ccccc1 | inconclusive: 31.6 µM [inhibitor, single point]
22 | CC(C)CC1(C(=O)O)NC(c2ccccc2O)C2C(=O)N(C(C)C)C(=O)C21 (stereo not drawn) | inconclusive: 28.2 µM [inhibitor, single point]

Row | Structure (SMILES) | Potency
23 | O=C(Nc1ccc2c(c1)N(C1CCCC1)C(=O)c1ccccc1S2)c1ccc(F)cc1 | inactive
24 | CN(C)c1ccc(/C=N/NC(=O)c2ccc(NC(=O)c3ccccc3)cc2)cc1 | inconclusive: 22.4 µM [inhibitor, single point]
25 | Cc1ccc(C)c(OCC(O)CN2CCC(Cc3ccccc3)CC2)c1 (stereo not drawn) | inconclusive: 12.6 µM [inhibitor, single point]
26 | CCN(CC)c1ccc(NC(=O)C2COc3ccc(OC)cc3C2)c(C)c1 (stereo not drawn) | inconclusive: 2.24 µM [inhibitor, full curve]
27 | CC(=O)c1ccc(NC(=O)Nc2cccc3ccccc23)cc1 | inactive
28 | CCCC[C@@H](CNC)NC[C@H](NCCCCC1CCCCC1)C(C)C | inconclusive: 28.2 µM [inhibitor, single point]
29 | CCn1cc(C2=NOC(C(=O)Nc3ccc4c(c3)OCO4)C2)c(C)n1 (stereo not drawn) | inconclusive: 28.2 µM [inhibitor, single point]
30 | C[C@@H]1CN([C@@H](C)CO)C(=O)CCCn2cc(nn2)CO[C@H]1CN(C)S(=O)(=O)c1ccccc1C#N | inactive
31 | Cc1cc(C)n(-c2nc(NCCC(C)C)c3c4c(sc3n2)COC(C)(C)C4)n1 | inconclusive: 6.31 µM [inhibitor, partial curve]
32 | COc1cccc(-c2nc(CS(=O)(=O)CC(=O)NCCCN3CC(C)CC(C)C3)c(C)o2)c1 (stereo not drawn) | inconclusive: 31.6 µM [inhibitor, single point]
33 | CCOC(=O)C1(Cc2ccc(OC)cc2)CCN(C(=O)c2ccoc2C)CC1 | inactive
34 | O=C(CCSc1ccc(Cl)cc1)N1CCN(c2ccc(O)cc2)CC1 | inconclusive: 7.94 µM [inhibitor, partial curve, poor fit]
35 | C=CCN(CC=C)C(=S)NC(=O)c1ccc(OC)cc1 | active: 0.631 µM
36 | COc1ccc(C(O)C(CN2CCOCC2)c2ccccc2)cc1 (stereo not drawn) | inconclusive: 3.55 µM [inhibitor, full curve]
37 | O=C(Nc1nc2ccccc2[nH]1)c1cc2ccccc2o1 | inconclusive: 28.2 µM [inhibitor, single point]
38 | CO/N=C/c1cccn1-c1nccc(OC)c1C#N | inactive
39 | CC1CCN(C(=O)Cn2ncc3c4ccccc4n(Cc4ccc(Cl)cc4)c3c2=O)CC1 | inactive
40 | Cn1c(=O)c2cc(NC(=O)NCc3ccc(Cl)cc3Cl)ccc2n1Cc1ccccc1 | inactive
41 | COc1ccc(C(=O)CCN2CCc3cc(OC)c(OC)cc3C2)cc1 | inconclusive: 25.1 µM [inhibitor, single point]
42 | O=C(NNC(=O)c1ccc(SCC2CCCO2)c([N+](=O)[O-])c1)c1ccc(Cl)c([N+](=O)[O-])c1 (stereo not drawn) | inconclusive: 11.2 µM [inhibitor, single point]
43 | CC(C)C[C@@H](CN1CCC[C@H]1CN1C(=O)C(=O)NC[C@@H]1Cc1ccccc1)N1C[C@H](Cc2ccc(O)cc2)N(CC2CCCCC2)C(=O)C1=O | inactive
